Biological target: human dopamine type 3 receptor (CHO-hD3 membranes) (Homo sapiens (Human), UniProt P35462)
Details: displacement of 0.3 nM [3H]-Spiperone

Sequence of UniProt P35462 (P35462 whole entry): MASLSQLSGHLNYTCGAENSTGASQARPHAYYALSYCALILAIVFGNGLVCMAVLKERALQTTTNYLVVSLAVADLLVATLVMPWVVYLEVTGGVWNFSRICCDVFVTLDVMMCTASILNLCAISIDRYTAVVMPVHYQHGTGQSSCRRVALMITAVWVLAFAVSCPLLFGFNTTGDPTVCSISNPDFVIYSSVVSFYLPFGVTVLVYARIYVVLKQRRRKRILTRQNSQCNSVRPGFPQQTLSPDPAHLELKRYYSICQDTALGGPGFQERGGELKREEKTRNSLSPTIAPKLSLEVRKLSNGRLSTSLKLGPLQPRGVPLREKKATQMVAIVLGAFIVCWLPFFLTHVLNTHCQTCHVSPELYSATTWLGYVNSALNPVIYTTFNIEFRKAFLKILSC

| Structure (SMILES) | D3 pKi |
| --- | --- |
| Cn1c(SCCCN2C[C@@H]3CCN(c4ccc(C(F)(F)F)cc4)[C@@H]3C2)nnc1-c1cc[nH]c(=O)c1 [Example 166, 4-[5-({3-[(3aS,6aS or 3aR,6aR)-1-[4-(trifluoromethyl)phenyl]-octahydropyrrolo[2,3-c]pyrrol-5-yl]propyl}sulfanyl)-4-methyl-4H-1,2,4-triazol-3-yl]-1,2-dihydropyridin-2-one] | 7.81 |
| Cl.Cl.Cn1c(SCCCN2C[C@H]3CCN(c4ccccc4C(F)(F)F)[C@H]3C2)nnc1-c1ccc(=O)[nH]c1 [Example 183, 5-[5-({3-[(3aR,6aR or 3aS,6aS)-1-[2-(trifluoromethyl)phenyl]-octahydropyrrolo[3,4-b]pyrrol-5-yl]propyl}sulfanyl)-4-methyl-4H-1,2,4-triazol-3-yl]-1,2-dihydropyridin-2-one dihydrochloride] | 7.12 |
| Cn1c(SCCCN2CC3CCN(c4c(F)cccc4F)C3C2)nnc1-c1ccncc1 (centres unmarked) [Example 154, 4-[5-({3-[1-(2,6-difluorophenyl)-octahydropyrrolo[3,4-b]pyrrol-5-yl]propyl}sulfanyl)-4-methyl-4H-1,2,4-triazol-3-yl]pyridine] | 8.35 |
| Cc1ncccc1-c1nnc(SCCCN2CC3CCN(c4c(F)cccc4F)C3C2)n1C (centres unmarked) [Example 190, 3-[5-({3-[1-(2,6-difluorophenyl)-octahydropyrrolo[3,4-b]pyrrol-5-yl]propyl}sulfanyl)-4-methyl-4H-1,2,4-triazol-3-yl]-2-methylpyridine] | 7.73 |
| Cc1cc(-c2nnc(SCCCN3CC4CCN(c5ccc(C(F)(F)F)cc5)C4C3)n2C)on1 (centres unmarked) [Example 163, 4-methyl-3-(3-methyl-1,2-oxazol-5-yl)-5-[(3-{1-[4-(trifluoromethyl)phenyl]-octahydropyrrolo[3,4-b]pyrrol-5-yl}propyl)sulfanyl]-4H-1,2,4-triazole] | 8.59 |
| Cn1c(SCCCN2CC3CCN(c4ccc(C(F)(F)F)cc4)C3C2)nnc1-c1ccccn1 (centres unmarked) [Example 160, 2-{4-methyl-5-[(3-{1-[4-(trifluoromethyl)phenyl]-octahydropyrrolo[3,4-b]pyrrol-5-yl}propyl)sulfanyl]-4H-1,2,4-triazol-3-yl}pyridine] | 8.75 |
| Cn1c(SCCCN2CC3CCN(c4ccccc4)C3C2)nnc1C1CCOCC1 (centres unmarked) [Example 36] | 7.94 |
| Cc1ncoc1-c1nnc(SCCCN2CCC3CCN(c4ccc(C(F)(F)F)cc4)CC32)n1C.Cl.Cl (centres unmarked) [Example 244, 4-methyl-3-(4-methyl-1,3-oxazol-5-yl)-5-[(3-{6-[4-(trifluoromethyl)phenyl]-octahydro-1H-pyrrolo[2,3-c]pyridin-1-yl}propyl)sulfanyl]-4H-1,2,4-triazole dihydrochloride] | 7.39 |
| CC(C)Oc1ccccc1N1CC[C@@H]2CN(CCCSc3nnc(-c4cnccn4)n3C)C[C@@H]21.Cl.Cl [Example 119, 2-[5-({3-[(3aR,6aR or 3aS,6aS)-1-[2-(propan-2-yloxy)phenyl]-octahydropyrrolo[3,4-b]pyrrol-5-yl]propyl}sulfanyl)-4-methyl-4H-1,2,4-triazol-3-yl]pyrazine dihydrochloride] | 8.11 |
| Cn1nccc1-c1nnc(SCCCN2CC3CCN(c4c(F)cccc4F)C3C2)n1C (centres unmarked) [Example 184, 3-({3-[1-(2,6-difluorophenyl)-octahydropyrrolo[3,4-b]pyrrol-5-yl]propyl}sulfanyl)-4-methyl-5-(1-methyl-1H-pyrazol-5-yl)-4H-1,2,4-triazole] | 8.33 |
| Cc1ncoc1-c1nnc(SCCCN2C[C@@H]3CCN(c4ccc(C(F)(F)F)cc4)[C@@H]3C2)n1C.Cl.Cl [Example 5, 3-({3-[(3aS,6aS or 3aR,6aR)-1-[4-(trifluoromethyl)phenyl]-octahydropyrrolo[2,3-c]pyrrol-5-yl]propyl}sulfanyl)-4-methyl-5-(4-methyl-1,3-oxazol-5-yl)-4H-1,2,4-triazole dihydrochloride] | 8.65 |

— patent US10273244B2, “Substituted hexahydropyrrolo[3,4-b]pyrroles and hexahydrocyclopenta[c]pyrroles as dopamine receptor modulators” (INDIVIOR UK LIMITED, priority 2015, dated 2019)
